The full ranking holds about 110,000 compounds; the median of “z-score” is about -0.1, and the highest 2% start at about 2. The list shows a part of the results. The source made the active and inactive calls.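 How the source made its calls: active means z-score in the third read window above 3 or below -3; inactive means the rest.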

This experiment addresses Metabotropic glutamate receptor 8 (Rattus norvegicus) (UniProt P70579). Description: rat mGluR8 modulators via GIRK flux, primary screen, cell-based, thallium flux, HTS (AID 488969). Particulars: HEK293 rat mGluR8, GIRK (G protein-gated inwardly rectifying potassium channel) thallium flux, FluoZin2; at 10 µM; stronger effect = higher value; submaximal glutamate (EC20) added with thallium.
Chain of UniProt P70579 (P70579 whole entry, looked up): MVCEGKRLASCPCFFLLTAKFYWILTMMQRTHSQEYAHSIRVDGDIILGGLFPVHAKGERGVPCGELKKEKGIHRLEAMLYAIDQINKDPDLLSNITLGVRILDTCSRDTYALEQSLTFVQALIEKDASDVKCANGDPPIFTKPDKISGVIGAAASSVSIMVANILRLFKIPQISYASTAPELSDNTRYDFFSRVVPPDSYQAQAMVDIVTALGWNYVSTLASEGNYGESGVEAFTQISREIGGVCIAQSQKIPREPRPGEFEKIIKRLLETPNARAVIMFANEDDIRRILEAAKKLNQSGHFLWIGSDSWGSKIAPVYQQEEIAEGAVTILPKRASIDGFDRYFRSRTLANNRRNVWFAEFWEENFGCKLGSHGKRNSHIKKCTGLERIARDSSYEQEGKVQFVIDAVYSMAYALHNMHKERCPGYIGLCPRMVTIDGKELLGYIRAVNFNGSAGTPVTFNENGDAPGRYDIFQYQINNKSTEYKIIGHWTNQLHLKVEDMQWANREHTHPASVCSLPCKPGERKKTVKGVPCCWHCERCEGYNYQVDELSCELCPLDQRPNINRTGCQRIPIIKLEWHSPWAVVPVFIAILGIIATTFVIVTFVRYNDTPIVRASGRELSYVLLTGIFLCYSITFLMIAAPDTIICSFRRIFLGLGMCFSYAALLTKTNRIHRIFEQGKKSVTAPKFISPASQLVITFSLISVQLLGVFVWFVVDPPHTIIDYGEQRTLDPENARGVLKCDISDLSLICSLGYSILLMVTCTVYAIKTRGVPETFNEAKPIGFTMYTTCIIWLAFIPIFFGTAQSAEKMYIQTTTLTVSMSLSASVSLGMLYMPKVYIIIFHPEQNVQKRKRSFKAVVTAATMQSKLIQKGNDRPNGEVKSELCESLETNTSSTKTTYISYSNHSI
In turn, `COCCN(CC(=O)NCc1ccc2c(c1)OCO2)C(=O)CCC(=O)Nc1nccs1` gave a z-score of -0.182. Consider `Cc1ccc2nc(N3CCN(Cc4ccc(F)cc4)C3=O)c(C)cc2c1`, for which the z-score was -0.912.

For `Cc1ccc(C)c2[nH]c(=O)c(CCNC(=O)c3ccc4c(c3)OCO4)cc12`, the z-score stood at 0.118. The result for `COC(=O)c1c(NC(=O)CN2CCN(Cc3ccc4c(c3)OCO4)CC2)sc(C)c1C` reads -0.0305; that for `O=C(c1ccc(NS(=O)(=O)c2cccs2)cc1)N1CCCCC1`, -0.889. In turn, `COc1ccc(-c2noc(CCC(=O)Nc3ccc4c(c3)OCCO4)n2)cc1` displayed a z-score of -0.26. Turning to `O=C(c1cccc2c1C(=O)N(Cc1cccnc1)C2)N1CCN(c2ccccc2)CC1`, the z-score was -0.233. Turning to `CCOc1cccc(N2C(=O)CC(NCc3ccc(S(N)(=O)=O)cc3)C2=O)c1` (centres undefined), the z-score was -0.472. The result for `Cc1ccc(/C=C/C(=O)Nn2cnnc2)cc1` reads 0.123.

`COc1ccccc1NC(=O)CSc1nnnn1C` yielded a z-score of 0.016. The result for `CCOc1ccc2nc(SC3CC(=O)N(c4ccc(OC)cc4)C3=O)sc2c1` (centres undefined) reads 0.369. In the case of `COc1cccc(C2CC(=O)NC(SC)=C2C#N)c1` (centres undefined) it was -0.235.

Turning to `O=c1c2ccc(Cl)cc2[nH]c(=S)n1CCC1=CCCCC1`, the z-score is active: 5.05. The result for `COc1ccc(/C=C2\SC(=S)N(Cc3cccnc3)C2=O)cc1C` reads -0.0985; that for `Nc1nc2sc3c(c2c(=O)s1)CCCC3`, -0.206; that for `O=C(CSc1nnc(COc2ccccc2)n1Cc1ccco1)Nc1ccc2c(c1)OCCO2`, -0.475. Compound `Cc1cccc(N2C(=O)c3cccc4c(N5CCCCC5)c([N+](=O)[O-])cc(c34)C2=O)c1C` showed a z-score of -0.494.

`O=C(CC1NCCNC1=O)OCc1ccccc1` (centres undefined) returned a z-score of 0.419.

Compound `COc1ccc(-c2[nH]c(-c3ccccc3)nc2SCC(=O)NCc2ccco2)cc1OC` gave a z-score of 0.0309. Turning to `Cc1cc(N2CCCCC2)nc(N)n1`, the z-score was 0.0516. In turn, `O=C(Nc1cccc(OCC(=O)N2CCOCC2)c1)C1CCCCC1` yielded a z-score of 0.00741.

`O=C(COC(=O)c1cccs1)Nc1nc(-c2ccccc2)cs1` displayed a z-score of -0.296. The result for `COc1ccc(C(=O)Nc2cc(C(F)(F)F)ccc2-n2cnc3ccccc32)cc1` reads -0.219. `O=C(Nc1ccc(F)cc1)N1CCC(c2nc3c(nnn3Cc3cccc(Cl)c3)c(=O)[nH]2)CC1` came in with a z-score of -0.111. The result for `COc1cccc(/C=N/NC(=O)c2cccc([N+](=O)[O-])c2)c1OS(=O)(=O)c1ccc(C)cc1` reads 0.156. For the compound `COc1ccccc1/C=C/C1=NC(=C\C=C/c2ccccc2)/C(=O)O1`, the z-score was 0.49. `Cc1ccn2c(/C=N/OCc3ccc(F)cc3)c(-c3ccc(Cl)cc3)nc2c1`: the z-score is -0.0987.

Take `CCOC(=O)C1C(=O)CC(O)(c2ccccc2)CC1c1ccccc1` (centres undefined): the z-score is -0.679. The result for `Cc1cccc(-n2c(C)cc(/C=N/NC(=O)c3cccc([N+](=O)[O-])c3C)c2C)c1` reads -0.459; that for `CCN(C#N)c1nc(NC(C)C)nc(NC(C)C)n1`, active: -3.06. The result for `CCN(CC)c1ccc(/C=N/NC(=O)CCC(=O)NCc2ccccc2)c(O)c1` reads 0.00231; that for `CN(c1ccccc1)c1ccc(/C=N/NC(=O)CC#N)cc1`, -0.203. In the case of `CCN(CC)c1ccc(-n2c(C)cc(C=O)c2C)cc1` it was 0.148.

Consider `N#Cc1nc(Cc2ccccc2)oc1N1CCC(Cc2ccccc2)CC1`, for which the z-score was -0.0794. In the case of `O=C(CSc1nc2nc[nH]c2c(=O)[nH]1)NC1CCCCC1` it was 0.456; in that of `O=C(COc1ccc(Br)cc1)NNC(=S)NC(=O)c1ccccc1[N+](=O)[O-]`, -0.343.

In turn, `Cc1ccc(C)c2c1cc(C)c1nnc(SCC(=O)c3cccs3)n12` gave a z-score of -0.212. The result for `COc1cccc(/C=N/Nc2ncnc3c2ncn3Cc2ccccc2)c1O` reads -0.371; that for `Cc1[nH]c2ccccc2c1C(=O)COC(=O)C(C)C`, -0.437.

The compound `CCCn1cc(SCC(=O)NCC2CCCO2)c2ccccc21` (centres undefined) had a z-score of 0.0527.

`O=c1oc(-c2ccccc2)nc2ccsc12` displayed a z-score of -1.43.

As to `CC(C)(C)C(=O)Nc1ccc2oc(-c3cc(F)c(F)cc3Cl)nc2c1`, the z-score stood at 0.247. The result for `Cc1cc(C(=O)CSc2nnc(-c3ccco3)o2)c(C)n1Cc1ccco1` reads -0.493. The result for `COc1ccc(CCN2CC34C=CC(O3)C(C(=O)NCc3ccccc3)C4C2=O)cc1OC` (centres undefined) reads -1.3; that for `O=C(NN1C(=O)c2ccccc2NC1c1ccccn1)c1ccc([N+](=O)[O-])cc1` (centres undefined), -0.183; that for `O=C(CC(SCCO)c1ccc2c(c1)OCO2)c1ccco1` (centres undefined), 0.324. `Cc1cccc(Nc2nnc(-c3ccc(C(=O)N4C[C@H]5C[C@H](C4)c4cccc(=O)n4C5)cc3)c3ccccc23)c1` had a z-score of -0.0469. For the compound `N#C/C(=C/c1ccc(N2CCCC2)c([N+](=O)[O-])c1)c1nc2ccccc2[nH]1`, the z-score is 0.0678. In the case of `CC(SC1=NCCS1)C(=O)Nc1nnc(-c2ccc(Cl)cc2)s1` (centres undefined) it was -0.386; in that of `Fc1ccc(-c2csc3nnc(SCc4cccnc4)n23)cc1`, -0.0579. In the case of `CC1CCc2c(sc3c2C2=NS(=O)(=O)CCN2C=N3)C1` (centres undefined) it was 0.913. `C=CCNc1sc(C(=O)C(C)(C)C)c(N)c1C#N` showed a z-score of -0.0773. In the case of `CNc1nc(N(C)C)nc(N(C)C)n1` it was -0.0155. `O=C1CCC(C(=O)NCc2cccnc2)N1` (centres undefined) showed a z-score of 0.133. For `O=C(O)CSc1nnc(C2COc3ccccc3O2)n1-c1ccccc1` (centres undefined), the z-score amounted to 0.669. For the compound `Cc1ccc(C)n1N1C(=O)/C(=C\c2ccc(Cl)cc2)SC1=S`, the z-score was -0.0433.

Turning to `Cc1ccc(CC(=O)N2CCOCC2)cc1`, the z-score is -0.184. In turn, `O=C(Cn1nnc(-c2ccc(Cl)cc2)n1)NC1CCN(Cc2ccccc2)CC1` registered a z-score of 0.243.

Compound `CCc1ccc(CCC(=O)Nc2ccc(S(N)(=O)=O)cc2)o1` displayed a z-score of 0.191.

Turning to `COc1cccc(C(=O)N2CCN(C3CCN(Cc4ccccc4)CC3)CC2)c1`, the z-score is -0.193. In the case of `Cc1c(NC2(c3nnnn3-c3ccc(Br)cc3)CCCCC2)c(=O)n(-c2ccccc2)n1C` it was -0.0573; in that of `O=C(CSC1=NCCS1)N1CCN(c2ccccc2)CC1`, -0.0309; in that of `CCN(CC)C(=O)c1sc2nc(-c3ccc(OC)cc3)cn2c1C`, 0.0875. As for `CC1CCc2c(sc3nc(C4CC4)nc(N4CCN(C(=O)c5ccco5)CC4)c23)C1` (centres undefined), the z-score was -0.174. The compound `COC(=O)[C@@H](NC(=O)NCc1cccs1)C(C)C` registered a z-score of 0.171.

The compound `COc1ccc(CCNC(=O)c2c(C)cc(=O)oc2C)cc1OC` gave a z-score of -0.0984. In the case of `COc1ccc(-c2csc3nc(-c4cccnc4)nc(N4CCC(C(N)=O)CC4)c23)cc1OC` it was -0.122; in that of `Fc1ccc(N2CCN(c3ncnc4nc[nH]c34)CC2)cc1`, -0.189; in that of `CCN(CC)S(=O)(=O)c1cc(C(=O)O)c(Cl)cc1Cl`, -0.554.

The values above are taken from PubChem BioAssay AID488969 (Vanderbilt High Throughput Screening Facility, 2010).
